Laboratory results reported in PubChem BioAssay AID1768 (National Center for Advancing Translational Sciences (NCATS), 2009).
Values joined by “and” are separate entries in the source; they are usually repeats but may differ in a detail not shown here. Equal entries are not always repeated. Hit rate of the full screen: of about 270,000 compounds, about 620 (0.23%) were called active. Inconclusive means that the source gave no clear call. Such entries were picked first, then a sample of the others. Calls follow the shape of the dose curve; as a rule, active = well fitted inhibition curve with a large enough effect in the polarisation, with a control signal flat (not every such curve was filed as active); inconclusive = small, poorly fitted or top-dose-only effect, or effect the other way, or a change in a side signal; inactive = no such curve, though single readings can be large or run the other way; the % refers to the polarisation. A potency beside an inconclusive call is a rough fit, not a confirmed value. A note “side channel” means that the fit belongs to a control or component signal, not to the main read-out.

These molecules were tested against Menin (Homo sapiens) (UniProt O00255) (assay: qHTS Assay for Inhibitors Targeting the Menin-MLL Interaction in MLL Related Leukemias: Competition With Texas Red Labeled MLL-derived Mutant Peptide). Settings: fluorescence polarization; FP activity change, negative = inhibition: at 61.6 µM (top of the series).
Sequence of UniProt O00255 (O00255 whole entry, looked up): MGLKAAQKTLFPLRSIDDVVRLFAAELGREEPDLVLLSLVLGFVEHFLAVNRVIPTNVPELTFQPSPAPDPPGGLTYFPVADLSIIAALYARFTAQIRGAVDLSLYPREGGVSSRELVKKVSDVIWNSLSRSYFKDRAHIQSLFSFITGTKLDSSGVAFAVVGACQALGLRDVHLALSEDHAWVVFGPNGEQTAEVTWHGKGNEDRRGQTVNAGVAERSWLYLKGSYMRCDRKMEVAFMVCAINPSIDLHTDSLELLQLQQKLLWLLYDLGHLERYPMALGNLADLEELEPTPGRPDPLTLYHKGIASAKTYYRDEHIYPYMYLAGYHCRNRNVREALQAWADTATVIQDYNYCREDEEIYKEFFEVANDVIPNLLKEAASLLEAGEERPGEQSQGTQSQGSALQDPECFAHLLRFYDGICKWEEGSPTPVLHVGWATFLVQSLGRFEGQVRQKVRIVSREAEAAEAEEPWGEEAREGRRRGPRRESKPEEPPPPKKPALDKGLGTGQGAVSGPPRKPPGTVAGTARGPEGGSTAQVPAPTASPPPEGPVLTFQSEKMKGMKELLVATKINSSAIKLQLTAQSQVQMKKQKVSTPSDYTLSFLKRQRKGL

For FP activity change, negative = inhibition in this document: % of control where 0% means no effect.
Potency is read from the fitted curve at half-maximal effect; tags tell the direction and shape of the fitted curve or compound fluorescence and quenching.

Potency, inconclusive:
Cc1ccc(NC(=O)CCn2c(=S)oc3ccccc32)cc1F 31.6 µM [fluorescent, side channel, single point], C/C(=N/O)c1ccc(N2C(=O)C3C4C=CC(C3C2=O)C2C3C(=O)N(c5ccc(/C(C)=N/O)cc5)C(=O)C3C42)cc1 (stereo unspecified) 25.1 µM [fluorescent, side channel, single point], CCCOc1ccc(C(=O)C(CCC(CNCC)C(=O)c2ccc(OCCC)cc2)CNCC)cc1 (stereo unspecified) 35.5 µM [fluorescent, side channel, single point], O=C(COC(=O)c1ccc(NS(=O)(=O)c2cccs2)cc1O)NCc1ccccc1 31.6 µM [quencher, side channel, single point], CC(C)c1ccc(/C=C2\C(=O)N(CCN3CCOCC3)C(=S)N2C)cc1 10 µM [fluorescent, side channel, partial curve], Cc1ccc(NC(=O)c2cn(CCC#N)nc2-c2cccs2)c([N+](=O)[O-])c1 10 µM [quencher, side channel, partial curve], CC(C)(C)Nc1nc(N2CCCC2)nc(N2CCCC2)n1 12.6 µM [fluorescent, side channel, partial curve], Cc1nn(-c2ccccc2)c(N)c1N=Nc1ccc(Cl)cc1 14.1 µM [quencher, side channel, partial curve], ONc1cccnc1-n1nc(C(F)(F)F)cc1C(F)(F)F 22.4 µM [quencher, side channel, partial curve], COc1cc(NC(=O)c2ccccc2Cl)c2ncccc2c1 31.6 µM [quencher, side channel, single point], CCOC(=O)COc1ccc2c(c1)c(C(C)=O)c(C)n2-c1ccccc1 8.91 µM [fluorescent, side channel, full curve], CCOc1cccc(/C=N/Nc2ccc(S(=O)(=O)N(CC)CC)cn2)c1O 8.91 µM [quencher, side channel, full curve], CCOC(=O)c1nc(N/N=C/c2ccccc2)sc1Br 39.8 µM [quencher, side channel, single point], CS(=O)(=O)N1Cc2ccccc2CC1C(=O)Nc1ccccc1C(N)=O (stereo unspecified) 39.8 µM [inhibitor, partial curve], CCCOc1ccc(S(=O)(=O)Nc2ccccn2)c2ccccc12 39.8 µM [fluorescent, single point], Brc1c(Br)c(Br)c2[nH]cnc2c1Br 39.8 µM [inhibitor, single point], COc1ccc(CN=C(Nc2ccccc2)SC2CC(=O)NC2=O)cc1 (stereo unspecified) 25.1 µM [quencher, side channel, partial curve], CC(C)c1ccc(C2NC(=O)NC3=C2CCc2ccccc23)cc1 (stereo unspecified) 7.94 µM [fluorescent, side channel, partial curve, poor fit], CC(=O)Nc1ccc(S(=O)(=O)Nc2nc3ccccc3nc2Sc2nncn2C)cc1 31.6 µM [quencher, side channel, single point], Cc1c(Cl)cccc1Nc1ccccc1C(=O)O 11.2 µM [quencher, side channel, partial curve] and 17.8 µM [quencher, side channel, partial curve] and 22.4 µM [quencher, side channel, partial curve], C=CCOC(=O)C1=C[C@H](c2ccc(C(F)(F)F)cc2)[C@@H](CCCO)[C@H](OCC)O1 12.6 µM [fluorescent, side channel, partial curve], O=C(C1=C[C@@H](C2CC2)C[C@@H](OCc2ccc(CO)cc2)O1)N1CCN(Cc2ccc3c(c2)OCO3)CC1 6.31 µM [fluorescent, side channel, partial curve], CCc1c(C)nc2ncnn2c1NCc1cccs1 25.1 µM [inhibitor, partial curve], C/C(=N\Nc1ccccc1)c1cccc(N)c1 22.4 µM [quencher, side channel, partial curve], Fc1cccc(Cl)c1CSc1nnc(COc2cccc3cccnc23)o1 22.4 µM [fluorescent, side channel, single point], NNC(=O)c1ccccc1OCCOc1ccccc1 35.5 µM [inhibitor, single point], O=C(NNc1nc(=O)c2cccnc2s1)c1ccccc1O 39.8 µM [quencher, side channel, single point], CCC1CCCCN1S(=O)(=O)c1ccc(C(=O)Nc2nnc(-c3cccs3)o2)cc1 (stereo unspecified) 15.8 µM [quencher, side channel, partial curve], O=C(O)c1cccc(N2C(=O)c3ccc(Oc4ccc(Cl)cc4)cc3C2=O)c1 28.2 µM [quencher, side channel, single point], Cc1cc(NC(=O)c2ccc(N3CCCC3)c([N+](=O)[O-])c2)no1 35.5 µM [quencher, side channel, single point], Cc1cccc(CN2CCc3c([nH]c4ccccc34)C2CC(C)C)n1 (stereo unspecified) 28.2 µM [fluorescent, side channel, partial curve]

FP activity change, negative = inhibition, inactive:
CC1(C)Oc2ccc3ccc(=O)oc3c2/C(=C/Nc2cccc(O)c2)C1=O 9.4%, CCOc1cccc2cc(C(=O)Nc3cc(C)on3)c(=O)oc12 -11.8%, COc1ccc(/C=C/C(=O)Nc2ccc3nc4n(c(=O)c3c2)CCCC4)cc1 -2.69%, CCOc1ccc(NC(=O)CC(NCc2ccccn2)C(=O)O)cc1 (stereo unspecified) 2.02%, CC(C1CCCC(=O)C1)[N+](=O)[O-] (stereo unspecified) -2.9%
